Data taken from PubChem BioAssay AID1240 (Sanford-Burnham Center for Chemical Genomics, 2008).
Screen size: about 50,000 compounds; about 800 (1.6%) showed an effect of 50% or more. The list shows a part of the results.

Target: Bcl-2-like protein 10 (Homo sapiens) (UniProt Q9HD36)
Assay: Phenotype converters, Bcl-B/TR3 peptide binding displacement, primary biochemical FP (AID 1240);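 further: 0% = Bcl-B with tracer peptide and DMSO and 100% = tracer peptide lacking Bcl-B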
Settings: GST-Bcl-B / FITC-TR3 peptide fluorescence polarization; stronger effect = higher value; compound at 3.75 mg/L

UniProt Q9HD36, sequence (Q9HD36 whole entry, looked up): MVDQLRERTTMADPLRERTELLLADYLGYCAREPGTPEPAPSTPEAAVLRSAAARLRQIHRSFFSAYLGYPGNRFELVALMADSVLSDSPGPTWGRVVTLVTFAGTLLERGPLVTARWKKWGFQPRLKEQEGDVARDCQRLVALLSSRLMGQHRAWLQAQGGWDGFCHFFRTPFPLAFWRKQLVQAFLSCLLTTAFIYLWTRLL

Row | Compound | displacement [%]
1 | COC(=O)c1ccc(N(Cc2ccc(Cl)cc2)S(C)(=O)=O)cc1 | 7.6
2 | CCCCC(O)(CCCC)c1ccccc1O | -2.8
3 | CC(C)C(=O)Nc1ccc(Cl)c(-c2nc3ccccc3[nH]2)c1 | -12
4 | CC(Oc1ccc(Cl)cc1Cl)C(=O)N1CCN(Cc2ccccc2)CC1 (stereo not given) | -1.6
5 | O=C(c1nn2c(C(F)(F)F)cc(-c3ccccc3)nc2c1Cl)N1CCCCC1 | -8.7
6 | COC(=O)C1=C(C)NC(=O)NC1c1ccccc1F (stereo not given) | 2.7
7 | CC1=C(C(=O)Nc2ccc(C)cc2)C(c2ccc(Cl)cc2)NC(=S)N1 (stereo not given) | -2.8
8 | Cc1ccc(-c2n[nH]c3nc(C)cc(=O)n23)cc1 | -4.9
9 | O=c1c2c(nc3cc(-c4ccc(Cl)cc4)[nH]n13)CCS2 | 115
10 | CC(C)NC(=O)c1ccc(Cl)c(Cl)c1 | 14
11 | C=CCc1ccccc1OCCOc1c(Br)cc(/C=c2\sc3nc4ccccc4n3c2=O)cc1OC | 12.4
12 | CCn1c(/N=C/c2ccc(OC)c3cccc(OC)c23)nc2ccccc21 | -3
13 | CSc1nnc2c(n1)OC(c1ccc(-c3ccc([N+](=O)[O-])cc3)o1)Nc1ccccc1-2 (stereo not given) | 6.8
14 | COc1cc(NC(=O)c2ccc(Br)cc2)cc(OC)c1 | 3.8
15 | CCOc1nc(N=C(N)N)nc2c(C)cccc12 | -14.4
16 | Cc1ccc(-c2csc(N)c2C(=O)OC(C)C)cc1C | -5.6
17 | O=C(c1cccc(F)c1)N1CCN(C2CCC(c3ccccc3)CC2)CC1 (stereo not given) | -9.2
18 | O=C(c1cc2ccccc2oc1=O)N1CCCC1 | -2.5
19 | NS(=O)(=O)c1cccc(NC(=O)c2ccc(Cl)cc2Cl)c1 | 13.4
20 | CNC(=O)C(C)NC(=O)C12CC3CC(CC(C3)C1)C2 (stereo not given) | 6.6
21 | O=C(Nc1ccc(Br)c(Cl)c1)c1cccc([N+](=O)[O-])c1 | 6.3
22 | O=C(/C=C/c1ccccc1)NC(=S)Nc1ccc([N+](=O)[O-])cc1Cl | 2.7

Row | Compound | displacement [%]
23 | CC(C)c1ccc(N2C(=O)c3ccccc3NC2c2ccc3c(c2)OCO3)cc1 (stereo not given) | 1.8
24 | Cc1ccc[n+](CC(=O)c2ccc(Cl)cc2)c1C | 5.6
25 | COc1ccc(OCC(=O)Nc2cccc(-c3nc4ccccc4s3)c2)cc1 | 5
26 | Cc1c(NC(=O)NC(=O)c2ccc(F)cc2)c(=O)n(-c2ccccc2)n1C | 2.5
27 | O=C1CC(c2ccc(Cl)cc2)CC2=C1C(c1cc3c(cc1[N+](=O)[O-])OCO3)Nc1ccccc1N2 (stereo not given) | -1.1
28 | COC(=O)C1=NN(C(=O)c2cccc(OC)c2)C(O)(c2ccc(Cl)cc2)C1 (stereo not given) | -15.2
29 | O=C(Nc1cc([N+](=O)[O-])ccc1O)c1ccc(C(=O)Nc2cc([N+](=O)[O-])ccc2O)cc1 | 4.4
30 | CCOc1ccc(N2C(=O)C3CC=CCC3C2=O)cc1 (stereo not given) | 14.7
31 | O=C(Nc1ccc(O)c(-c2nc3ccccc3s2)c1)C(c1ccccc1)c1ccccc1 | 0.4
32 | CC(/C=C1\SC(N2CCN(C3=NC(=O)/C(=C\C(C)=C\c4ccccc4)S3)CC2)=NC1=O)=C\c1ccccc1 | -9
33 | O=C1C(=Cc2ccc(-c3ccc(Cl)c([N+](=O)[O-])c3)o2)C(=O)c2ccccc21 | -7.8
34 | CC(=O)c1cc(Cc2csc(C(C)=O)c2)cs1 | 8.4
35 | O=C(N/N=C/c1cccc([N+](=O)[O-])c1)c1cc(C2CC2)[nH]n1 | -7.4
36 | CCOC(=O)C1=C(C)N(CC)C(=O)NC1c1ccccc1Cl (stereo not given) | 2.1
37 | CN1CCN(S(=O)(=O)c2cc(Cl)ccc2Br)CC1 | 17.3
38 | COc1ccc(C(NC(=O)c2ccco2)c2ccc(OC)cc2)cc1 | -4.9
39 | O=C1S/C(=C/c2ccccc2)C(=O)N1CN1CCCCC1 | 14
40 | CC1=C(C(=O)Nc2ccccc2)C2(CCCCC2)C(C#N)=C(SCC(N)=O)N1 | 0
41 | CCCCNCCCCCOc1cc(C)ccc1C | 8.1
42 | CCOC(=O)c1c(NS(=O)(=O)c2ccc(OC)c(OC)c2)sc2c1CCCC2 | -1.7
43 | CCOC(=O)C1=C(O)/C(=C\c2ccc([N+](=O)[O-])cc2)N=C1C | 1.5
44 | CCOc1cc(C2Nc3ccccc3NC3=C2C(=O)CC(c2ccc(OC)cc2)C3)ccc1OC(=O)C1CC1 (stereo not given) | 9

Row | Compound | displacement [%]
45 | COc1ccc(C(=O)Nc2c(-c3ccccc3)nc3ccc(C)cn23)cc1 | 7.3
46 | Cc1ccc(NC(=O)CC(C)C)cc1Cl | -5.1
47 | CC1C(c2ccccc2)N(C)C(c2ccccc2)C(C)C1(O)Cc1ccccc1 (stereo not given) | 15.9
48 | O=C(N/N=C/C(Br)=C\c1ccccc1)c1ccccn1 | -4.7
49 | CC(C)(C)c1ccc(C(=O)NC2CCCC2)cc1 | -3.1
50 | CC(=O)c1ccc(N2C(=O)c3ccc(C(=O)O)cc3C2=O)cc1 | 4.7
51 | CC(NC(=O)/C(C#N)=C/c1ccc(N(C)C)cc1)c1ccccc1 (stereo not given) | 1.8
52 | CCOC(=O)C1=C(C)N=c2s/c(=C\c3ccc(O)c(OC)c3)c(=O)n2C1c1ccc(N(C)C)cc1 (stereo not given) | -13.9
53 | CCOC(=O)c1c(-c2ccc(Cl)cc2)csc1NC(=O)C1CCCCC1C(=O)O (stereo not given) | -3.7
54 | O=C(c1cnn2c(C(F)(F)F)cc(-c3cccs3)nc12)N1CCCc2ccccc21 | 11.4
55 | O=C(O)/C=C/c1ccc(S(=O)(=O)N2CCN(CCN3C(=O)C4C5C=CC(C5)C4C3=O)CC2)cc1 (stereo not given) | -9.2
56 | COCCCNC(=O)C(=O)Nc1ccc(Cl)cc1 | 9.3
57 | CCOC(=O)/C(=C1/OC(=O)c2ccccc21)c1ccc([N+](=O)[O-])cc1 | -1.5
58 | C#CCOc1ccc(/C=C(/C#N)C(=O)Nc2cccc(Br)c2)cc1OC | 3.6
59 | O=C(Cc1ccccc1)N1CCc2ccccc2C1 | -8
60 | CCN(CC)CCC/C(=N\O)C(O)(c1ccccc1)c1ccccc1 | -4.1
61 | COc1cc(-c2ncnn2-c2ccc(F)c([N+](=O)[O-])c2)ccc1OCc1ccccc1 | -1.3
62 | CCc1ccc(N/C(=N/c2nc(C)cc(C)n2)NC(C)=O)cc1 | -3.1
63 | O=C(CN1CCOCC1)NCCNC(=O)c1ccccc1 | -7.4
64 | Cc1no[n+]([O-])c1COc1ccc(C=O)cc1 | 9
65 | O=C(COc1ccccc1Cl)Nc1ccc(Br)cc1C(=O)O | 12.4
66 | CN=C(Nc1cc(Cl)ccc1Cl)SC1CC(=O)N(c2ccc(OC)cc2)C1=O (stereo not given) | -2.7

Row | Compound | displacement [%]
67 | O=C1NC(=S)NC(=O)C1=Cc1cn(CCOc2ccc(Br)cc2)c2ccccc12 | 9.1
68 | COC(=O)c1ccc2c(c1[N+](=O)[O-])C(=O)c1ccccc1C2=O | -1.3
69 | O=[N+]([O-])c1ccccc1/C=N/N1CCN(Cc2ccc(Cl)cc2)CC1 | -1.7
70 | O=C(Nc1cccc(O)c1)c1cc2nc(-c3ccccc3)cc(-c3ccccc3)n2n1 | -4.9
71 | CC(=O)C1=C(O)C(=O)N(CCN(C)C)C1c1ccccc1 (stereo not given) | -4.1
72 | O=C(Cc1ccccc1)Nc1ccc(OC(F)F)cc1 | -7.4
73 | Cc1ccc(S(=O)(=O)NC(=O)N2CCc3ccccc32)cc1 | 5.6
74 | Cn1cccc1CN1CCN(C(=O)c2ccc(F)cc2)CC1 | 5.2
75 | CC(C)(CN1CCCCC1)NS(=O)(=O)c1ccc(Cl)cc1 | 3
76 | O=C(COc1ccccc1[N+](=O)[O-])Nc1cccc(Cl)c1Cl | 8.2
77 | CC(=O)Nc1ccc(S(=O)(=O)N2c3cc(C)ccc3C(C)=CC2(C)C)cc1 | -2.3
78 | O=C(NN=C1CCCC1)C(=O)NC1CCCCC1 | -4.4
79 | COc1ccc(/C=N/NS(C)(=O)=O)cc1 | 4.7
80 | O=C1C2C3C=CC(C4CC34)C2C(=O)N1c1ccc(I)cc1 (stereo not given) | 10.8
81 | CCCC(=O)Nc1ccc(NC(=O)COc2ccc(C(C)(C)C)cc2)cc1 | -5.2
82 | COc1cccc(-c2nc(-c3ccccn3)no2)c1 | 22
83 | Cc1cc(=O)oc2c(C(=O)c3ccccc3)c(OC(=O)c3ccccc3)ccc12 | -14.7
84 | O=C(c1cccnc1)N1CCN(C(=O)c2cccc(F)c2)CC1 | 5.7
85 | CCCOC(=O)c1ccc(NC(=O)C(C)Oc2ccccc2)cc1 (stereo not given) | 13.8
86 | COc1ccc(C(=O)Nc2ccc(Cl)c(-c3nc4ccccc4s3)c2)cc1[N+](=O)[O-] | -6.1
87 | COc1cc(NC(=O)c2ccc([N+](=O)[O-])cc2)ccc1NC(=O)c1ccco1 | 10.2
88 | CCOC(=O)c1c(N)sc(C(=O)Nc2ccc(OC)cc2)c1C | -0.6

Row | Compound | displacement [%]
89 | CCOc1ccc(C(=O)Nc2cccc(C(C)=O)c2)cc1 | 9
90 | COc1ccc(/C=C/C(=O)NCCc2nc3ccccc3[nH]2)cc1OC | 12
91 | CCCCOC(=O)c1ccc(NC(=S)NC(=O)c2cccs2)cc1 | -8.7
92 | CCN1C(=O)/C(=C\c2cccc(OCCOCCOc3ccc(C)cc3)c2)SC1=S | 2.7
93 | Cc1ccc2nc(-c3cc(Cl)c(N)c(Cl)c3)sc2c1 | 1.5
94 | NS(=O)(=O)c1ccc(N/C=C\C(=O)c2ccc3c(c2)OCO3)cc1 | 4.4
95 | CC(C)=N/N=C1/NC(=O)C(CC(=O)Nc2ccc(C)cc2C)S1 (stereo not given) | -0.5
96 | C=C(C)c1cccc(C(C)(C)NC(=O)Nc2ccccc2C(=O)OC)c1 | -2.7
97 | c1ccc(Nc2ncc(Cc3cccc4ccccc34)s2)cc1 | -2.2
98 | Cc1cccc(C)c1NC(=O)c1ccc2c(c1)OCCO2 | 9.1
99 | CCOc1ccc(CN2CCN(Cc3cc(OC)ccc3O)CC2)cc1 | 11.6
100 | OCCNCC(O)Cn1c2ccc(I)cc2c2cc(I)ccc21 (stereo not given) | -4.2
101 | COc1cc2c(cc1OC)-c1nnc(-c3ccc(Br)cc3)n1C(C)(C)C2 | 16.1
102 | O=C(CSc1nc2ccccc2o1)NCc1ccco1 | -19.3
103 | COc1cc(OC)cc(C(=O)Nc2ccc3oc(-c4ccccc4F)nc3c2)c1 | 6.8
104 | COc1ccc(CCNC(=O)C2CCCCC2C(=O)O)cc1 (stereo not given) | 6.3
105 | CC1=CCN(C(C)(C)C)CC1=O | -0.3
106 | CCOC(=O)c1c(Nc2ccccc2)sc(C=NCCc2ccccc2)c1O | -7.7
107 | COc1ccc(Cl)cc1NC(=O)Cc1ccccc1 | 4.3
108 | COc1ccc(OC)c(-n2c(O)c(C=NCc3ccccc3F)c(=O)[nH]c2=O)c1 | 5.8
109 | CCOc1cc(C2NC(=S)NC(C)=C2C(=O)Nc2ccc(OC)cc2)ccc1O (stereo not given) | -3.2
110 | CCc1ccc(CN2CCN(C(=O)c3ccco3)CC2)cc1 | -15.9
